# Laboratory results reported in the supplement of paper PMC8728848.
# Some of the results follow.
# B1: SRA-1 (Homo sapiens), P21757 (protein)
# chain: MEQWDHFHNQQEDTDSCSESVKFDARSMTALLPPNPKNSPSLQEKLKSFKAALIALYLLVFAVLIPLIGIVAAQLLKWETKNCSVSSTNANDITQSLTGKGNDSEEEMRFQEVFMEHMSNMEKRIQHILDMEANLMDTEHFQNFSMTTDQRFNDILLQLSTLFSSVQGHGNAIDEISKSLISLNTTLLDLQLNIENLNGKIQENTFKQQEEISKLEERVYNVSAEIMAMKEEQVHLEQEIKGEVKVLNNITNDLRLKDWEHSQTLRNITLIQGPPGPPGEKGDRGPTGESGPRGFPGPIGPPGLKGDRGAIGFPGSRGLPGYAGRPGNSGPKGQKGEKGSGNTLTPFTKVRLVGGSGPHEGRVEILHSGQWGTICDDRWEVRVGQVVCRSLGYPGVQAVHKAAHFGQGTGPIWLNEVFCFGRESSIEECKIRQWGTRACSHSEDAGVTCTL
# Key:
# Assay in all cases: glycan array binding signal (z-score within array); higher = stronger binding
# Conditions in all cases: glycan notation: IUPAC condensed, linker removed
# [1] = molecular target: Fuc(a1-2)[Gal(a1-3)]Gal(b1-4)[Fuc(a1-3)]GlcNAc(b1-3)GalNAc
# Summary of the method: (§1)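 Glycan array data came from 3228 arrays in the Consortium for Functional Glycomics database, and only arrays with an available protein sequence were kept. Glycan names were put into IUPAC-condensed notation, and columns mapping to the same glycan were averaged. The binding signal is a within-array Z-score, averaged across arrays of one protein sequence run at different concentrations or buffers and across linkers. A negative Z-score can be read as non-binding.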
# [2] = molecular target: Fuc(a1-2)[Gal(a1-4)]Gal(b1-4)GlcNAc
# Summary of the method: as §1
# [3] = molecular target: Fuc(a1-2)[GalNAc(a1-3)]Gal
# Summary of the method: as §1
# [4] = molecular target: Fuc(a1-2)[GalNAc(a1-3)]Gal(b1-3)GalNAc(a1-3)[Fuc(a1-2)]Gal(b1-4)GlcNAc
# Summary of the method: as §1
# [5] = molecular target: Fuc(a1-2)[GalNAc(a1-3)]Gal(b1-3)GalNAc(b1-3)Gal(a1-4)Gal(b1-4)Glc
# Summary of the method: as §1
# [6] = molecular target: Fuc(a1-2)[GalNAc(a1-3)]Gal(b1-3)GlcNAc
# Summary of the method: as §1
# [7] = molecular target: Fuc(a1-2)[GalNAc(a1-3)]Gal(b1-3)GlcNAc(b1-2)Man(a1-3)[Fuc(a1-2)[GalNAc(a1-3)]Gal(b1-3)GlcNAc(b1-2)Man(a1-6)]Man(b1-4)GlcNAc(b1-4)GlcNAc
# Summary of the method: as §1
# [8] = molecular target: Fuc(a1-2)[GalNAc(a1-3)]Gal(b1-3)GlcNAc(b1-2)Man(a1-3)[Fuc(a1-2)[GalNAc(a1-3)]Gal(b1-3)GlcNAc(b1-2)Man(a1-6)]Man(b1-4)GlcNAc(b1-4)[Fuc(a1-6)]GlcNAc
# Summary of the method: as §1
# [9] = molecular target: Fuc(a1-2)[GalNAc(a1-3)]Gal(b1-3)GlcNAc(b1-3)GalNAc
# Summary of the method: as §1
# [10] = molecular target: Fuc(a1-2)[GalNAc(a1-3)]Gal(b1-3)GlcNAc(b1-6)GalNAc
# Summary of the method: as §1
# [11] = molecular target: Fuc(a1-2)[GalNAc(a1-3)]Gal(b1-4)Glc
# Summary of the method: as §1
# [12] = molecular target: Fuc(a1-2)[GalNAc(a1-3)]Gal(b1-4)GlcNAc
# Summary of the method: as §1
# [13] = molecular target: Fuc(a1-2)[GalNAc(a1-3)]Gal(b1-4)GlcNAc(b1-2)Man
# Summary of the method: as §1
# [14] = molecular target: Fuc(a1-2)[GalNAc(a1-3)]Gal(b1-4)GlcNAc(b1-2)Man(a1-3)[Fuc(a1-2)[GalNAc(a1-3)]Gal(b1-4)GlcNAc(b1-2)Man(a1-6)]Man(b1-4)GlcNAc(b1-4)GlcNAc
# Summary of the method: as §1
# [15] = molecular target: Fuc(a1-2)[GalNAc(a1-3)]Gal(b1-4)GlcNAc(b1-2)Man(a1-3)[Fuc(a1-2)[GalNAc(a1-3)]Gal(b1-4)GlcNAc(b1-2)Man(a1-6)]Man(b1-4)GlcNAc(b1-4)[Fuc(a1-6)]GlcNAc
# Summary of the method: as §1
# [16] = molecular target: Fuc(a1-2)[GalNAc(a1-3)]Gal(b1-4)GlcNAc(b1-3)Gal(b1-4)GlcNAc
# Summary of the method: as §1
# [17] = molecular target: Fuc(a1-2)[GalNAc(a1-3)]Gal(b1-4)GlcNAc(b1-3)Gal(b1-4)GlcNAc(b1-3)Gal(b1-4)GlcNAc
# Summary of the method: as §1
# [18] = molecular target: Fuc(a1-2)[GalNAc(a1-3)]Gal(b1-4)GlcNAc(b1-3)GalNAc
# Summary of the method: as §1
# [19] = molecular target: Fuc(a1-2)[GalNAc(a1-3)]Gal(b1-4)GlcNAc(b1-3)[Fuc(a1-2)[GalNAc(a1-3)]Gal(b1-4)GlcNAc(b1-6)]GalNAc
# Summary of the method: as §1
# [20] = molecular target: Fuc(a1-2)[GalNAc(a1-3)]Gal(b1-4)GlcNAc(b1-6)GalNAc
# Summary of the method: as §1
# [21] = molecular target: Fuc(a1-2)[GalNAc(a1-3)]Gal(b1-4)[Fuc(a1-3)]GlcNAc
# Summary of the method: as §1
# [22] = molecular target: Fuc(a1-2)[GalNAc(a1-3)]Gal(b1-4)[Fuc(a1-3)]GlcNAc(b1-3)GalNAc
# Summary of the method: as §1
# [23] = molecular target: Fuc(a1-2)[GalNAc(a1-4)]Gal(b1-4)GlcNAc
# Summary of the method: as §1
# [24] = molecular target: Fuc(a1-2)[GalNAc(b1-3)]Gal
# Summary of the method: as §1
# Fuc(a1-3)GlcNAc = molecular target: Fuc(a1-3)GlcNAc
# Summary of the method: as §1
# [25] = molecular target: Fuc(a1-3)[Gal(b1-4)]Glc6S
# Summary of the method: as §1
# [26] = molecular target: Fuc(a1-3)[Gal(b1-4)]GlcNAc
# Summary of the method: as §1
# [27] = molecular target: Fuc(a1-3)[Gal(b1-4)]GlcNAc(b1-2)Man
# Summary of the method: as §1
# [28] = molecular target: Fuc(a1-3)[Gal(b1-4)]GlcNAc(b1-2)Man(a1-3)[Fuc(a1-3)[Gal(b1-4)]GlcNAc(b1-2)Man(a1-6)]Man(b1-4)GlcNAc(b1-4)GlcNAc
# Summary of the method: as §1
# [29] = molecular target: Fuc(a1-3)[Gal(b1-4)]GlcNAc(b1-2)Man(a1-3)[Fuc(a1-3)[Gal(b1-4)]GlcNAc(b1-2)Man(a1-6)]Man(b1-4)GlcNAc(b1-4)[Fuc(a1-6)]GlcNAc
# Summary of the method: as §1
# [30] = molecular target: Fuc(a1-3)[Gal(b1-4)]GlcNAc(b1-3)Gal(b1-3)[Fuc(a1-4)]GlcNAc
# Summary of the method: as §1
# [31] = molecular target: Fuc(a1-3)[Gal(b1-4)]GlcNAc(b1-3)Gal(b1-4)[Fuc(a1-3)]GlcNAc
# Summary of the method: as §1
# [32] = molecular target: Fuc(a1-3)[Gal(b1-4)]GlcNAc(b1-3)Gal(b1-4)[Fuc(a1-3)]GlcNAc(b1-3)Gal(b1-4)[Fuc(a1-3)]GlcNAc
# Summary of the method: as §1
# [33] = molecular target: Fuc(a1-3)[Gal(b1-4)]GlcNAc(b1-3)GalNAc
# Summary of the method: as §1
# [34] = molecular target: Fuc(a1-3)[Gal(b1-4)]GlcNAc(b1-6)GalNAc
# Summary of the method: as §1
# [35] = molecular target: Fuc(a1-3)[Gal(b1-4)]GlcNAc(b1-6)[Gal(b1-3)GlcNAc(b1-3)]Gal(b1-4)Glc
# Summary of the method: as §1
# [36] = molecular target: Fuc(a1-3)[Gal(b1-4)]GlcNAc6S
# Summary of the method: as §1
# [37] = molecular target: Fuc(a1-3)[Gal3S(b1-4)]Glc
# Summary of the method: as §1
binder,measurement,setting,value
B1,glycan array binding signal (z-score),[1],-0.115
same,glycan array binding signal (z-score),[2],0.081
same,glycan array binding signal (z-score),[3],-0.218
same,glycan array binding signal (z-score),[4],-0.428
same,glycan array binding signal (z-score),[5],-0.415
same,glycan array binding signal (z-score),[6],-0.384
same,glycan array binding signal (z-score),[7],0.613
same,glycan array binding signal (z-score),[8],-0.338
same,glycan array binding signal (z-score),[9],-0.047
same,glycan array binding signal (z-score),[10],0
same,glycan array binding signal (z-score),[11],-0.333
same,glycan array binding signal (z-score),[12],-0.192
same,glycan array binding signal (z-score),[13],0.119
same,glycan array binding signal (z-score),[14],-0.626
same,glycan array binding signal (z-score),[15],0.761
same,glycan array binding signal (z-score),[16],-0.293
same,glycan array binding signal (z-score),[17],0.422
same,glycan array binding signal (z-score),[18],0.211
same,glycan array binding signal (z-score),[19],-0.401
same,glycan array binding signal (z-score),[20],-0.464
same,glycan array binding signal (z-score),[21],1.28
same,glycan array binding signal (z-score),[22],21.8
same,glycan array binding signal (z-score),[23],-0.165
same,glycan array binding signal (z-score),[24],-0.083
same,glycan array binding signal (z-score),Fuc(a1-3)GlcNAc,-0.062
same,glycan array binding signal (z-score),[25],1.43
same,glycan array binding signal (z-score),[26],-0.229
same,glycan array binding signal (z-score),[27],-0.487
same,glycan array binding signal (z-score),[28],-0.41
same,glycan array binding signal (z-score),[29],-0.398
same,glycan array binding signal (z-score),[30],-0.447
same,glycan array binding signal (z-score),[31],0.234
same,glycan array binding signal (z-score),[32],-0.172
same,glycan array binding signal (z-score),[33],-0.156
same,glycan array binding signal (z-score),[34],-0.092
same,glycan array binding signal (z-score),[35],-0.456
same,glycan array binding signal (z-score),[36],0.096
same,glycan array binding signal (z-score),[37],-0.075
